Screen size: about 74,000 compounds; about 1,100 (1.5%) were called active. Inconclusive means that the source gave no clear call. Such entries were picked first, then a sample of the others. Calls come from the whole dose curve; as a rule, active = well fitted inhibition curve with a large enough effect; inconclusive = small, poorly fitted or top-dose-only effect; inactive = no such curve, though single readings can be large or run the other way. Potencies of inconclusive entries are left out as doubtful fits. Some compounds were tested as several samples or in several runs, with calls that do not always agree.
The molecules below were run against Polyunsaturated fatty acid lipoxygenase ALOX15 (Homo sapiens) (UniProt P16050) (assay: qHTS Assay for Inhibitors of 15-hLO (15-human lipoxygenase)). Conditions: purified 15hLO-1, xylenol orange hydroperoxide absorbance; activity change, negative = inhibition: at 57.1 µM (top of the series) unless noted.
Chain of UniProt P16050 (P16050 whole entry, looked up): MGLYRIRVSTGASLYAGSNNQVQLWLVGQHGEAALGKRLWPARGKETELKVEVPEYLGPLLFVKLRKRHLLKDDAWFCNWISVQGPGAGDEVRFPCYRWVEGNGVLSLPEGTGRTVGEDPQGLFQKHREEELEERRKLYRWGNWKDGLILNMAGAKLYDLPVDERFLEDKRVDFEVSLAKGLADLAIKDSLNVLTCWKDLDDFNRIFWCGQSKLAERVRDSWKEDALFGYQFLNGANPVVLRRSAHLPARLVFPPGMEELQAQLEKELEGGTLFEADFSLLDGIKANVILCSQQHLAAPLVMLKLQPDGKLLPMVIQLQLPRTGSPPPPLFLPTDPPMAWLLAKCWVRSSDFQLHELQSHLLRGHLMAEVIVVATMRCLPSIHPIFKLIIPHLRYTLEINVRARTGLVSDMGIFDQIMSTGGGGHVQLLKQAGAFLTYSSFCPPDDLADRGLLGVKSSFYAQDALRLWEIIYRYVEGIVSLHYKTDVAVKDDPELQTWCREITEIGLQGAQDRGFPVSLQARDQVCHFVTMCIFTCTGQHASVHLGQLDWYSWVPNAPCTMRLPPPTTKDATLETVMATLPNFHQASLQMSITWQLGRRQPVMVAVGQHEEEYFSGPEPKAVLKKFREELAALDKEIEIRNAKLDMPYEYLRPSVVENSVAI
In short: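 Hydroperoxide formed from arachidonic acid (50 uM) by purified human 15hLO-1 (40 nM) oxidizes ferrous iron, and the ferric-xylenol orange complex is read at 573 versus 405 nm. Compounds were preincubated 15 min; reaction ran 6 min at room temperature.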
% is set by controls: 0 for no effect and ±100 for the full control effect; potency is the fitted concentration of half-maximal effect; tags give direction and shape of the fitted curve.
Note: nearly all actives have a fitted effect of over 55% in size.

Row | SMILES | Potency | activity change, negative = inhibition
1 | CC1(C)CC(=O)CC(=NCC(=O)O)C1 | inconclusive [inhibitor, single point] | 
2 | O=C(CCC1CCCCC1)Nc1c2c(nn1-c1ccc(F)cc1)CS(=O)(=O)C2 | inconclusive [inhibitor, partial curve] | 
3 | CN(C)c1oc(-c2ccccc2Cl)nc1C#N |  | inactive: -10.5%
4 | COC(=O)c1c(N)n(-c2ccc(N3CCOCC3)cc2)c2nc3ccccc3nc12 | inconclusive [inhibitor, single point] | 
5 | Cc1oc2cc(O)cc(O)c2c(=O)c1-c1ccc2c(c1)OCCCO2 | inconclusive [inhibitor, partial curve] | 
6 | COc1cccc(Nc2ncc3nc(C)c(=O)n(CCc4ccccc4)c3n2)c1 |  | inactive: 15.2%
7 | CC(C)=CCC/C(C)=C/CC/C(C)=C/CO | inconclusive [inhibitor, single point] | 
8 | Cc1nc2sccn2c(=O)c1CCN1CCC(=C(c2ccccc2)c2ccc(F)cc2)CC1 | inconclusive [inhibitor, single point] | 
9 | COc1ccc(C(=O)Nc2nc(-c3cccs3)cs2)cc1 |  | inactive: -25.1%
10 | Cc1ccc(Cn2c(C)nc3c(c2=O)c2nc4ccccc4nc2n3Cc2ccco2)cc1 | inconclusive [inhibitor, partial curve] | 
11 | COc1c(-c2ccccc2)oc2c(ccc3occc32)c1=O |  | inactive: 4.47% [at 25.6 µM]
12 | COc1ccc(-c2cc(C(F)(F)F)nc(SCC(=O)Nc3cc(C)on3)n2)cc1OC |  | inactive: -17.9%
13 | COc1ccc(N2CCN(C(=O)C(OC(C)=O)c3ccccc3)CC2)cc1 (centres undefined) |  | inactive: -5.59%
14 | NC(=NCCCCCCN=C(N)/N=C(\N)Nc1ccc(Cl)cc1)/N=C(\N)Nc1ccc(Cl)cc1 | inconclusive [inhibitor, single point] | 
15 | CC(C)c1cc(Nc2cccc(O)c2)cc(C(C)C)c1O | active: 10 µM | 
16 | O=C(Cc1coc2cc3c(cc12)CCC3)OCc1cc(=O)n2c(n1)sc1ccccc12 | active: 20 µM | 
17 | O=C(COC(=O)CCCc1c[nH]c2ccccc12)Nc1ccc2c(c1)OCO2 | inconclusive [inhibitor, single point] | 
18 | CC(C)n1c(CCC(=O)O)ccc1-c1ccccc1 | inconclusive [inhibitor, partial curve] | 
19 | Cc1ccc(OCc2nnc(SCc3nc4ccccc4[nH]3)n2Cc2ccco2)cc1 |  | inactive: 4.55%
20 | COc1ccc(-c2n[nH]c(C)c2-c2cnn(-c3ccccc3)c2)c(O)c1 | inconclusive [inhibitor, partial curve] | 
21 | N[C@H](C(=O)O)c1ccc(C(=O)O)cc1 | inconclusive [inhibitor, single point] | 
22 | S=c1ccss1 | active: 7.94 µM | 
23 | C=CCn1c(NC(=O)c2ccc(Br)o2)c(C(=O)OCC)sc1=S | inconclusive [inhibitor, partial curve] | 
24 | N#CC1=C(SCC(=O)c2cc3ccccc3oc2=O)NC(=O)C(C#N)C12CCCC2 (centres undefined) | inconclusive [inhibitor, partial curve] | 
25 | Cc1ccc(C(=O)COC(=O)c2ccc(Br)o2)cc1C | inconclusive [inhibitor, single point] | 
26 | COc1cc(C(Nc2ccccn2)c2ccc3ccc(C)nc3c2O)cc(OC)c1O (centres undefined) | active: 12.6 µM | 
27 | CC1(C)CC(=O)C(C(c2cccc(O)c2O)C2C(=O)CC(C)(C)CC2=O)C(=O)C1 |  | inactive: 17.9% [at 11.4 µM]

Row | SMILES | Potency | activity change, negative = inhibition
28 | c1cnc(N2CCN(c3ncnc4c3oc3ccccc34)CC2)nc1 |  | inactive: 3.38%
29 | C#CCN1C(C)=C(C(=O)OC)[C@@H](c2cccc([N+](=O)[O-])c2)C(C(=O)OCC)=C1C |  | inactive: -9.38%
30 | Cc1ccccc1N=C1NC(=O)CS1 |  | inactive: 15.3%
31 | CC(=O)n1nc(-c2ccco2)nc1SCc1ccccc1 | active: 3.98 µM | 
32 | c1ccc(N(c2ccccc2)c2nc(-n3ccnc3)nc(-n3ccnc3)n2)cc1 |  | inactive: 19.6%
33 | O=C(O)CCCC(=O)OCCCCc1cccs1 |  | inactive: 3.66%
34 | CCC1CCCCN1C1Sc2ccc(C(=O)OC)cc2NC1=O (centres undefined) | inconclusive [inhibitor, single point] | 
35 | C#CCCCO/N=C1/C[C@@H](O)[C@@H](O)[C@@H]2[C@H]3C(=O)N(c4ccc(F)cc4F)C(=O)[C@@H]3CC[C@H]12 |  | inactive: 6.15% [at 11.4 µM]
36 | CCOC(=O)c1cc(NC(=O)OC)c(C)nc1C | inconclusive [inhibitor, single point] | 
37 | CCOC(=O)c1c(-c2ccco2)csc1N | inconclusive [inhibitor, partial curve] | 
38 | CN(C)CCNS(=O)(=O)N(C)C |  | inactive: 2.75% [at 11.4 µM]
39 | Cc1ccccc1-n1nnnc1SCc1ncc(-c2ccccc2)o1 | inconclusive [inhibitor, partial curve] | 
40 | Cc1cc2c3nonc3ccc2n1-c1ccccc1 |  | inactive: -7.11% [at 11.4 µM]
41 | Brc1ccc2c(c1)c1nc3ccccc3nc1n2CCN1CCOCC1 | active: 31.6 µM | 
42 | Cn1c(COc2ccc(Cl)cc2)nc2ccccc2c1=O | active: 25.1 µM | 
43 | Fc1ccc(OCc2nn3c(Cn4nnc5ccccc54)nnc3s2)cc1 | inconclusive [inhibitor, partial curve] | 
44 | CC(C)c1c(O)ccc2c1CCC1[C@@](C)(CO)CCC[C@@]21C (some centres undefined) | inconclusive [inhibitor, single point] | 
45 | C[C@@H](CN1c2ccccc2Sc2ccccc21)N(C)C | active: 15.8 µM | 
46 | CC1CCC2C(=O)N3C(CCC(C)[C@H]3c3ccccc3Br)C(=O)N2C1c1ccccc1Br (some centres undefined) |  | inactive: -3.04% [at 11.4 µM]
47 | Cc1ccc(C)n1NC(=O)c1cccs1 | active: 15.8 µM | 
48 | Clc1ccccc1-c1cncnc1NCc1cccs1 | inconclusive [inhibitor, single point] | 
49 | CSc1nc(SC)c2c3c(oc2n1)COC(C)(C)C3 | inconclusive [inhibitor, single point] | 
50 | COC(=O)CSc1nc2ccccc2nc1SCC(=O)OC | inconclusive [inhibitor, single point] | 
51 | O=C(OCC(=O)c1ccccc1Br)c1ccccn1 |  | inactive: 19.6%
52 | COc1cc(O)c2c(c1)C(=O)c1cc(C)cc(O)c1C2=O | inconclusive [inhibitor, partial curve] | 
53 | O=C(NCc1nc2ccccc2[nH]1)c1ccco1 |  | inactive: 3.28%
54 | CN1CCCCCC1=NC1=C(C#N)CCCC1 | inconclusive [inhibitor, full curve] | 

Row | SMILES | Potency | activity change, negative = inhibition
55 | COC(=O)c1cc(NC(=O)C2COc3ccccc3O2)cc(C(=O)OC)c1 (centres undefined) | inconclusive [inhibitor, single point] | 
56 | Cc1ccccc1-c1cncnc1NCc1ccccc1 | inconclusive [inhibitor, single point] | 
57 | CCCn1c2ccccc2c2nc3ccccc3nc21 | inconclusive [inhibitor, partial curve] | 
58 | c1coc(-c2nnc(-c3ccc4c(c3)OCO4)o2)c1 | inconclusive [inhibitor, partial curve] | 
59 | C=C[C@](C)(O)CCC=C(C)C | inconclusive [inhibitor, single point] | 
60 | c1coc(-c2nc(-c3ccco3)c(-c3ccco3)nc2-c2ccco2)c1 | active: 2 µM | 
61 | c1csc(CNc2nc(-c3ccoc3)nc3ccccc23)c1 | inconclusive [inhibitor, partial curve] | 
62 | COc1nc(NCc2ccco2)nc(N2CCC(C)CC2)n1 | inconclusive [inhibitor, single point] | 
63 | CCCn1c(=O)[nH]c(=O)c2c1nc(-c1ccc3c(c1)OCCO3)n2CCN1CCOCC1 |  | inactive: 3.36%
64 | CCCCOC(=O)CSc1nnc(-c2ccc(Cl)cc2Cl)o1 | inconclusive [inhibitor, single point] | 
65 | CNC1C(O)C2OC3OC(C)CC(=O)[C@@]3(O)O[C@H]2[C@H](NC)C1O (some centres undefined) |  | inactive: -0.905%
66 | O=C(c1cc(-c2ccco2)nn1-c1cccc(Cl)c1)N1CCCCC1 | active: 7.94 µM | 
67 | Cc1ccc(S(=O)(=O)Nc2ccc3oc(=O)sc3c2)c(C)c1 | inconclusive [inhibitor, single point] | 
68 | Oc1ccc(COCc2ccccc2)c2cccnc12 |  | inactive: 5.62%
69 | N#CC1=C(N)Oc2c(ccc3cccnc23)C1c1cccnc1 (centres undefined) | inconclusive [inhibitor, single point] | 
70 | O=C(O)c1cc2cc(Cl)cc(Cl)c2oc1=O | inconclusive [inhibitor, partial curve] | 
71 | CN(C)c1ncc2nc(-c3cccs3)c(=O)n(-c3ccccc3)c2n1 |  | inactive: -5.14%
72 | c1ccc2nc(-c3nc4ccccc4[nH]3)ccc2c1 |  | inactive: 40.7%
73 | O=C(CSc1nc2ccccc2c(=O)[nH]1)c1ccc(O)c(O)c1 | inconclusive [inhibitor, partial curve] | 
74 | COc1cc2cc(CN(Cc3nnnn3Cc3ccco3)C3CCCCC3)c(=O)[nH]c2cc1OC | active: 12.6 µM | 
75 | COc1ccccc1CNc1cc(-c2ccccc2C(F)(F)F)ncn1 |  | inactive: -0.108%
76 | COc1ccc(C(=O)c2cn[nH]c2-c2cc(Cl)ccc2O)cc1 | active: 20 µM | 
77 | CCc1ccc2[nH]c(=O)c(CN(Cc3ccc4c(c3)OCO4)C(=O)c3ccco3)cc2c1 | inconclusive [inhibitor, partial curve] | 
78 | CC(C)C(=O)N(c1ccc2oc(=O)sc2c1)S(=O)(=O)c1cccs1 | active: 20 µM | 
79 | Clc1ccccc1-c1nn2c(-c3ccncc3)nnc2s1 | inconclusive [inhibitor, single point] | 
